# Out of some 360,000 compounds screened, about 16,000 (4.4%) were called active. Inconclusive results, whose numbers are uncertain, are shown with a selection of clear calls. The call rests on the fitted dose curve; in most records, active means well fitted inhibition curve with a large enough effect; inconclusive means small, poorly fitted or top-dose-only effect; inactive means no such curve, though single readings can be large or run the other way. Where the call is inconclusive, the potency comes from a doubtful curve fit.
# Molecular target: Bromodomain adjacent to zinc finger domain protein 2B (Homo sapiens) (UniProt Q9UIF8)
# Experiment: qHTS Assay for Inhibitors of BAZ2B; further: nearly all actives have a fitted effect of over 60% in size
# Settings: AlphaScreen BAZ2B-H3K14Ac peptide displacement; series mostly up to 114 µM
# Outline: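 AlphaScreen displacement of biotin-H3(5-23)K14Ac peptide (50 nM final) from BAZ2B (50 nM final) in PBS pH 7.4, 0.01% Tween-20; complex preformed 30 min RT, then compounds (top 110 uM) 30 min RT, beads 20 min dark.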
# Potency means the concentration at half of the fitted maximal effect; tags describe the fitted curve by direction and shape.
# UniProt Q9UIF8, sequence (Q9UIF8 whole entry, looked up, the tested form may be a part): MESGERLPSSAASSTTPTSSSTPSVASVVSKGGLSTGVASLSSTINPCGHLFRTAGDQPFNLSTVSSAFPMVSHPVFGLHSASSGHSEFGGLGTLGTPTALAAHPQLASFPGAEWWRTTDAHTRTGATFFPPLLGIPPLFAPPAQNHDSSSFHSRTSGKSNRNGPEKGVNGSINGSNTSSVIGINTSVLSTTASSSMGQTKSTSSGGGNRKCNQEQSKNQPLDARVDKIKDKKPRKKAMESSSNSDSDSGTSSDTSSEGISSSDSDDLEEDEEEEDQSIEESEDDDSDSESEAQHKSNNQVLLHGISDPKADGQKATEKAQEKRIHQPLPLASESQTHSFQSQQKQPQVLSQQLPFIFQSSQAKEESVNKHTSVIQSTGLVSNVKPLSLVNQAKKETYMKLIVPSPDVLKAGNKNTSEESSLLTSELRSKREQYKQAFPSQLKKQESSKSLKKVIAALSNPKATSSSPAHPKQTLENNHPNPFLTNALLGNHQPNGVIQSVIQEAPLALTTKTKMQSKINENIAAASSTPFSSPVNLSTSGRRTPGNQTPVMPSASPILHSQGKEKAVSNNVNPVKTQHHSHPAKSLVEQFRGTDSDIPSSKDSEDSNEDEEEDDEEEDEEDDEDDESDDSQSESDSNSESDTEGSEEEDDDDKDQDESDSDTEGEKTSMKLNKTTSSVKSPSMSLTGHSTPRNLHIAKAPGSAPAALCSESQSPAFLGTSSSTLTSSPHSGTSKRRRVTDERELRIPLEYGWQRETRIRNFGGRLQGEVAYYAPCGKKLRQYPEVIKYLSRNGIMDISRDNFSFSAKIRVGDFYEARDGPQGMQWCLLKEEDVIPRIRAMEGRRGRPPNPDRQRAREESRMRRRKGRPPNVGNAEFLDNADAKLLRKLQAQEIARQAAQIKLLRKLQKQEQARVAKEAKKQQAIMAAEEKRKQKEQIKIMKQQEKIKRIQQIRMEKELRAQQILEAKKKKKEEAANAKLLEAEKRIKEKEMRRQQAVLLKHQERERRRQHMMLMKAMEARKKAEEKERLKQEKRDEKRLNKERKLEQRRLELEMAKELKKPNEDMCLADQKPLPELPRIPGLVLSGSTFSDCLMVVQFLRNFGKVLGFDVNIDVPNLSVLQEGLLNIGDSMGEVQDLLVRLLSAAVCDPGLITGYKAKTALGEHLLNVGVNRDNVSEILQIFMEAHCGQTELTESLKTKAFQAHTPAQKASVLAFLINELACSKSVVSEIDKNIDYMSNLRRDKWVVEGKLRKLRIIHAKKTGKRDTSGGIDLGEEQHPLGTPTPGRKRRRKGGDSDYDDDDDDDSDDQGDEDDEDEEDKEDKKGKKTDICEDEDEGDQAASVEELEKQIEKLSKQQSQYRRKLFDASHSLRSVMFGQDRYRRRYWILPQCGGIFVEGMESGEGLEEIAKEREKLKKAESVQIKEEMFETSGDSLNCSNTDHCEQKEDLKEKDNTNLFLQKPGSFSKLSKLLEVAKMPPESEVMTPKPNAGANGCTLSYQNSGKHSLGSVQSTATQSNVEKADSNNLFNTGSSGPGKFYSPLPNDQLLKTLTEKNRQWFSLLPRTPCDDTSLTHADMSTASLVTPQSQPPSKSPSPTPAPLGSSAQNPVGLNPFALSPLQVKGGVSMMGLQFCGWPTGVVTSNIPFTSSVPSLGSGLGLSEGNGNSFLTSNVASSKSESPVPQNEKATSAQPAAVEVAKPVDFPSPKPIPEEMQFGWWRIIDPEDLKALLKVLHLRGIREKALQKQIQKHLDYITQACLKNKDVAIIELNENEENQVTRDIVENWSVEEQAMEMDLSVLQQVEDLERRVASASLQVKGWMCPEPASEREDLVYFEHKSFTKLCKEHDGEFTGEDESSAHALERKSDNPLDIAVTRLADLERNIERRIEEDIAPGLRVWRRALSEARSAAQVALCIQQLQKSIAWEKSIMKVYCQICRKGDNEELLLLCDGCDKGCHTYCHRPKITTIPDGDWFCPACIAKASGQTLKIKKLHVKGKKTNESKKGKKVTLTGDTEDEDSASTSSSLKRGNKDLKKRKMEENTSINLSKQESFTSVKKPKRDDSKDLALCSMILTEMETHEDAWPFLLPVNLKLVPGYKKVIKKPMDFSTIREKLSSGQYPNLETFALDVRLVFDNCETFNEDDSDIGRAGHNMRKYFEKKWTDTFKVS
row,SMILES,Potency
1,CCCOC1CCCN(C(=O)c2cc(COc3c(F)cccc3F)on2)C1 (stereo not given),"inconclusive: 89.1 µM [inhibitor, single point]"
2,O=C(N/N=C/c1cc2c3c(c1O)CCCN3CCC2)c1ccccc1O,active: 31.6 µM
3,O=C1OCCC1Sc1nc2cc(Cl)ccc2n1Cc1ccccc1 (stereo not given),"inconclusive: 89.1 µM [inhibitor, single point]"
4,O=C(CNC(=S)N(Cc1ccccc1)Cc1cccs1)NCc1ccc(F)cc1,"inconclusive: 89.1 µM [inhibitor, single point]"
5,Clc1cccc(OCCn2cncn2)c1Cl,active: 56.2 µM
6,COc1ccc(CNC(=O)CSc2nc(-c3ccc(OC)c(OC)c3)cc(C(F)(F)F)n2)cc1,"inconclusive: 89.1 µM [inhibitor, single point]"
7,COc1cc(Cl)c(NS(=O)(=O)c2ccc(-c3cnc(C4CC4)o3)cc2)c(OC)c1,"inconclusive: 44.7 µM [inhibitor, partial curve]"
8,COc1cccc(C(=O)c2c(C)c(CCC#N)n3ccccc23)c1OC,"inconclusive: 70.8 µM [inhibitor, partial curve, poor fit]"
9,O=C(O)CCCN1C(=O)NC2NC(=O)NC21 (stereo not given),"inconclusive: 89.1 µM [inhibitor, partial curve, poor fit]"
10,COc1ccc(Nc2cc(C)c3ccccc3n2)cc1,"inconclusive: 56.2 µM [inhibitor, partial curve]"
11,CCN(CC)C1CCN(Cc2c(C(=O)N3CCCCCCC3)nc3ccc(Cl)cn23)C1 (stereo not given),inactive
12,O=[N+]([O-])c1cccc(CN2CCCCCC2)c1,inactive
13,COc1cccc(-n2c(SCC(=O)NCCc3ccccc3)nnc2-c2ccoc2C)c1,"inconclusive: 44.7 µM [inhibitor, partial curve]"
14,CCOc1ccc(C2C(=O)N(C3CCCCCC3)CC(=O)N2CCc2ccc(OC)c(OC)c2)cc1OC (stereo not given),inactive
15,Cc1ccc(NC(=O)CCn2cccc2)cc1Cl,"inconclusive: 44.7 µM [inhibitor, partial curve]"
16,COc1ccc2[nH]cc(CCNS(=O)(=O)c3ccc(C)cc3)c2c1,"inconclusive: 50.1 µM [inhibitor, partial curve]"
17,Cc1ccc(Cn2c(=N)n(CC(O)c3ccco3)c3ccccc32)cc1 (stereo not given),"inconclusive: 89.1 µM [inhibitor, single point]"
18,CCC(=O)Nc1nnc(-c2ccc(OC)cc2)o1,"inconclusive: 79.4 µM [inhibitor, single point]"
19,COc1cc(-c2nnc(NC(=O)c3ccco3)o2)cc(OC)c1OC,active: 79.4 µM
20,Cc1cc(N/N=C/c2ccc(Cl)cc2Cl)nc(NCc2ccccc2)n1,"inconclusive: 35.5 µM [inhibitor, partial curve]"
21,CCN(Cc1ccccc1)S(=O)(=O)c1ccc(C(=O)N(CCCN(C)C)c2nc3cc(C)cc(C)c3s2)cc1,"inconclusive: 11.2 µM [inhibitor, full curve]"
22,C/C(=C\C(=S)Nc1ccccc1)Nc1ccccc1,"inconclusive: 79.4 µM [inhibitor, single point]"
23,Oc1cc(Nc2ccc(N3CCCCC3)cc2)cc2cccnc12,active: 35.5 µM

row,SMILES,Potency
1,O=C(Cn1cnc2c(oc3ccccc32)c1=O)Nc1ccc(F)cc1F,"inconclusive: 79.4 µM [inhibitor, single point]"
2,c1ccc(CN2CCN(C3=Nc4cccc5cccc3c45)CC2)cc1,"inconclusive: 50.1 µM [inhibitor, partial curve]"
3,Cc1cc(S(=O)(=O)N2CCC(N3CCCCC3)CC2)ccc1-n1cnnn1,"inconclusive: 89.1 µM [inhibitor, partial curve]"
4,COc1cc(/C=C/c2ccc3cccc(O)c3n2)cc(Cl)c1OC,"inconclusive: 20 µM [inhibitor, full curve]"
5,Cc1ccc(CCNC(=O)CS(=O)Cc2nc(-c3ccccc3C)oc2C)cc1 (stereo not given),"inconclusive: 28.2 µM [inhibitor, full curve]"
6,Oc1c(CNc2ccccc2)cc(COCc2ccccc2)c2cccnc12,active: 50.1 µM
7,CCOC(=O)C1CCCCN1Cc1cc(OC)ccc1OC (stereo not given),"inconclusive: 0.708 µM [inhibitor, full curve, poor fit]"
8,Cc1c(CCC(=O)NCc2cccc(Cl)c2)c(=O)oc2c(C)c(O)ccc12,inactive
9,NC(=O)CSc1nnc(NC(=O)c2ccc(S(=O)(=O)N3CCCCC3)cc2)s1,inactive
10,O=C(NCc1ccc(F)cc1)c1ccc(Nc2nc3ccccc3n3nnnc23)cc1,inactive
11,COc1ccc(-c2c(-c3cc(OC)cc(OC)c3)n(C)c3ccc(-c4ccc(S(N)(=O)=O)cc4)cc23)cc1,inactive
12,Cn1c(=O)n(C)c2cc(S(=O)(=O)Nc3ccc(F)cc3)ccc21,"inconclusive: 89.1 µM [inhibitor, single point]"
13,Cc1ccc(NC(=O)c2cc(C)n(-c3cccc(C)c3)c2C)cc1,"inconclusive: 39.8 µM [inhibitor, full curve, poor fit]"
14,Cc1nnc(SCC(=O)N2CCN(C(=O)c3ccco3)CC2)n1C,inactive
15,COCCN=C1Sc2nc3ccc(C)cc3cc2CN1Cc1ccco1,"inconclusive: 70.8 µM [inhibitor, single point]"
16,Cc1onc(NC(=O)CSCC(=O)O)c1Br,"inconclusive: 89.1 µM [inhibitor, single point]"
17,O=C(COC(=O)CCC(=O)c1cccs1)NCc1ccccc1,"inconclusive: 89.1 µM [inhibitor, single point]"
18,Cc1ccc2nc(CCc3ccc(N)cc3)[nH]c2c1,"inconclusive: 79.4 µM [inhibitor, partial curve]"
19,Cc1cccc(N2CCN(S(=O)(=O)c3c(C(=O)N4CCCCC4)c(C)n(C)c3C)CC2)c1C,"inconclusive: 44.7 µM [inhibitor, partial curve]"
20,COc1cc(NC(=O)C2CCCN(S(=O)(=O)c3ccc4[nH]c(=O)ccc4c3)C2)cc(OC)c1 (stereo not given),"inconclusive: 70.8 µM [inhibitor, single point]"
21,Cc1ccc(NC(=S)c2ccccc2)cc1,inactive
22,COC(=O)c1ccccc1NC(=S)NC(=O)c1ccc2ccccc2c1,"inconclusive: 28.2 µM [inhibitor, full curve]"

# From PubChem BioAssay AID504333 (National Center for Advancing Translational Sciences (NCATS), 2011)
